# Results: article PMC4336329 (PLoS ONE, 2015)
# Hit rate of the full screen: of about 310,000 compounds, about 2,200 (0.71%) showed an effect of 50% or more. Effects have a minus sign here. Some of the results follow.
# Target: human ether-à-go-go-related gene (hERG) potassium channel (human, UniProt Q12809)
# Test: primary screen, population patch clamp on CHO cells stably expressing hERG
# human ether-à-go-go-related gene (hERG) potassium channel, sequence (Q12809 whole entry, looked up): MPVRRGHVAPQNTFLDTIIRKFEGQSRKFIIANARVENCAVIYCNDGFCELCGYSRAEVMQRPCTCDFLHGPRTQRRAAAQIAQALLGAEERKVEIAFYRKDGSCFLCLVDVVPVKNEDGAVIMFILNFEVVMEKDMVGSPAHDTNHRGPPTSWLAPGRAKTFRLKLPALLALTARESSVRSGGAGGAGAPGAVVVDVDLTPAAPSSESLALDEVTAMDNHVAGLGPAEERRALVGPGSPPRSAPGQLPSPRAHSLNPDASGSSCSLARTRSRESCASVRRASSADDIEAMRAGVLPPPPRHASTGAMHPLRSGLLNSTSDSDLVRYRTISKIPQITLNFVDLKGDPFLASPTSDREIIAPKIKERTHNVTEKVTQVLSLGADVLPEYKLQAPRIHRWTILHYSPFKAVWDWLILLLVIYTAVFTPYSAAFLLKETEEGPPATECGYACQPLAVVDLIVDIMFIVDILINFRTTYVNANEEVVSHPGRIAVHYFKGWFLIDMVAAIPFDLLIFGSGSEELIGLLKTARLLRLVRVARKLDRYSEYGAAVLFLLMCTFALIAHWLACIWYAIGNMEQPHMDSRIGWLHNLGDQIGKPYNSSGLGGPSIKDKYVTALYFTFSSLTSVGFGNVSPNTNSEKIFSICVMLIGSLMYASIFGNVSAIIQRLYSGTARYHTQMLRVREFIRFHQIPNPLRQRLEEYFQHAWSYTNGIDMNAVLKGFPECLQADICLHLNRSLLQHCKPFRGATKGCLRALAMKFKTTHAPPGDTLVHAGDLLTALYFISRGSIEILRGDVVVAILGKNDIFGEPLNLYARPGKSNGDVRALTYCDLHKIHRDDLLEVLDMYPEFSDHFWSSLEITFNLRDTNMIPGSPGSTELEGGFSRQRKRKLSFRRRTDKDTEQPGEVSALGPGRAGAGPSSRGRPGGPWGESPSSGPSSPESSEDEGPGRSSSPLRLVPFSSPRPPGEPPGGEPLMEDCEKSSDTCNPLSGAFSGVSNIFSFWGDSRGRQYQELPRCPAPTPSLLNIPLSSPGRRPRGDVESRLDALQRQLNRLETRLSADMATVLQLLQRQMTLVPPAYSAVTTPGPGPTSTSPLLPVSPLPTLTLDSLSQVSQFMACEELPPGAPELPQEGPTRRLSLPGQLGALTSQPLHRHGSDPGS
row,Structure (SMILES),"hERG current change (%, negative = inhibition) at 1uM [%]"
1,CN(C)S(=O)(=O)c1ccc(NC(=O)c2cc3ccccc3o2)cc1,8.55
2,C[C@H](N)C(=O)OCc1ccc([N+](=O)[O-])cc1.O=S(=O)(O)c1ccccc1,15.4
3,O=C(O)CC(NS(=O)(=O)c1c(F)cc(F)cc1Br)c1ccccc1Cl (centres unmarked),1.1
4,CCOC(=O)c1nc(C)n(-c2cc(OC)c(Cl)cc2Cl)n1,12.7
5,CC(C)C(NC(=O)c1ccc(S(=O)(=O)N2CCOCC2)cc1)c1nc2ccccc2[nH]1 (centres unmarked),-11.3
6,C=CCN(C(=O)c1csnn1)C(C(=O)NC1CCCCC1)c1ccc(F)cc1 (centres unmarked),1.8
7,COc1ccc(S(=O)(=O)N2CCOCC2)cc1NC(=O)CCNC(=O)c1ccc([N+](=O)[O-])cc1,-2.8
8,Cc1c(CN2CCCC(CO)(Cc3cccc(Cl)c3)C2)cnn1C (centres unmarked),9.47
9,CCOC(=O)CSc1nnc(CSc2nc3ccccc3s2)n1C,6.96
10,CCOC(=O)/C(C#N)=C/Nc1cc(C(C)(C)C)sc1C(C)=O,19
11,COC(=O)C1=C(N)Oc2cc(C)n(CCN3CCOCC3)c(=O)c2C1c1cccnc1 (centres unmarked),12.5
12,CC(C)(C)OC(=O)N1CCC(c2c(C(=O)O)cnn2-c2ccccc2)CC1,15.7
13,COc1cccc(CN2CC(C(=O)N(C)Cc3ccc(C)cc3)CCC2=O)c1 (centres unmarked),13.5
14,Clc1ccc(Cc2nc(-c3cccnc3)no2)cc1,-3.87
15,COc1ccsc1C(=O)NCCN1CCOCC1,-3.57
16,Cc1cccc(OCC(=O)Nc2ccc3c(c2)nc(CN2CCCCC2)n3C)c1.Cl,-3.37
17,CC(=O)c1ccc(NC(=O)C2CC(c3ccc(F)cc3)=NO2)cc1 (centres unmarked),6.2
18,CN1C(=O)C2(OCC(C)([N+](=O)[O-])CO2)c2ccccc21 (centres unmarked),12.5
19,C#CCNC(=O)C1=C[C@H](C2CCCCC2)[C@@H](CCCO)[C@H](OCC)O1,15.9

row,Structure (SMILES),"hERG current change (%, negative = inhibition) at 1uM [%]"
1,CC(=O)N1CCOc2ccc(S(=O)(=O)N3CCC(C(=O)NCc4ccc(C)cc4)CC3)cc21,15.7
2,CN(C)c1cc[n+](Cc2ccccc2)cc1.[Br-],2.05
3,COc1cc2nc(Nc3ccc(C)c(C)c3)nc(N)c2cc1OC,4.31
4,Cc1c(NC(=O)COc2c(F)c(F)c(F)c(F)c2F)c(=O)n(-c2ccccc2)n1C,11.6
5,Cc1snc(SCC(=O)N/N=C(\N)COc2ccc(F)cc2)c1C#N,11.6
6,COc1ccccc1Cn1c(/C=C/c2ccccc2)nc2ccccc21,13.6
7,CCOC(=O)N1CCC(NC(=O)c2ccc(N3CCC4(CC3)OCCO4)c([N+](=O)[O-])c2)CC1,7.07
8,Cl.OC(CCCN1CCCCC1)(c1ccccc1)c1ccccc1,-5.59
9,CCn1c(=S)sc2c(=O)n(CC(=O)Nc3ccccc3C(F)(F)F)c(C)nc21,5.14
10,O=C(CSc1nncs1)Nc1ccc(Cl)cn1,0.856
11,CCn1c(SCC(=O)N2CCCc3ccccc32)nc2c(c1=O)SC(C)C2 (centres unmarked),10.3
12,CC1C(=O)N2CCCc3cc(NC(=O)C(=O)NCc4cccnc4)cc1c32 (centres unmarked),13
13,COc1ccc(S(=O)(=O)N(C)CC(=O)NCc2cccnc2)cc1C,8.52
14,COc1ccc(CCN(C)C(=O)c2cc(S(=O)(=O)N3CCCCC3)ccc2Cl)cc1OC,15.5
15,CC(C)NC(=O)c1ccccc1NC(=O)Cc1ccc(Br)cc1,13.4
16,CCC(C)(C)n1nnnc1C(c1ccc2ncccc2c1)N1CCN(c2nc3ccccc3s2)CC1 (centres unmarked),5.49
17,O=C(CN1C(=O)NC2(CCc3ccccc32)C1=O)c1ccccc1 (centres unmarked),10.6
18,Cl.c1ccc2c(c1)NCCS2,9.17
19,COc1c(O)cnn(-c2ccccc2)c1=O,15.6

row,Structure (SMILES),"hERG current change (%, negative = inhibition) at 1uM [%]"
1,O=C(CSc1nn(-c2ccc(Cl)cc2)c(=S)s1)NCC1CCCO1 (centres unmarked),10.9
2,CC(C)c1nnc(NC(=O)c2cc3ccccc3o2)s1,10.5
3,COc1cc(CSc2ncn[nH]2)c(OC)cc1CSc1ncn[nH]1,-0.272
4,Cc1cc(Cl)ccc1NC(=O)CSc1nnc(-c2ccncc2)n1Cc1ccco1,-26.9
5,O=C(CS(=O)c1cccc(C(F)(F)F)c1)Nc1ccccc1Cl (centres unmarked),5.29
6,COc1ccc(/C=N/n2c(=S)n(C)c3ccccc32)cc1OC,1.58
7,CC(C)=CCN1CCN(Cc2cc(C(C)C)n[nH]2)CC1CCO (centres unmarked),14.5
8,O=C(Nc1cc(-c2nc3ncccc3o2)ccc1Cl)c1ccco1,10.3
9,CCOc1ccc2nc(SCC(=O)Nc3cc(C)on3)c(C)cc2c1,11.6
10,O=C(N/N=C/c1c[nH]c2ccccc12)c1ccn[nH]1,-1.43
11,Cc1nnc(Sc2c(N)n(C)c(=O)n(C)c2=O)s1,10.3
12,Cc1cc(C(=O)Nc2cccc(/C=C/C(=O)O)c2)c(C)o1,-8.98
13,O=C(OCn1nnc2ccccc2c1=O)c1cc(-c2ccccc2Cl)nc2ccccc12,9.69
14,CC(C)CCCN1CCN=C1Nc1ccccc1,7.85
15,Clc1cccc(Cl)c1CON/C=N/c1ncnc2sccc12,-1.9
16,COc1ccc(C(=O)Nc2ccc(C)c(S(=O)(=O)N3CCCCCC3)c2)cc1,10.6
17,COc1ccc(-c2ccc3oc(-c4ccc(OC)cc4)c(-c4cc(OC)c(OC)c(OC)c4)c3c2)cc1,7.27
18,CC(C)(C)OC(=O)N1CCC(NC(=O)c2nc[nH]c2C(=O)N2CCN(C(=O)OC(C)(C)C)CC2)CC1,6.59
